Measured values as given in the supplement of paper PMC8728848.
The other results are listed elsewhere or left out.

Experiments:
Test in all cases: glycan array binding signal (z-score within array); higher = stronger binding
Conditions in all cases: glycan notation: IUPAC condensed, linker removed
Fuc(a1-2)Gal = biological target: Fuc(a1-2)Gal
How it was run: (§1)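 The binding signal is a Z-score computed within each array. Data were drawn from 3228 arrays in the Consortium for Functional Glycomics database, restricted to those with a known protein sequence. Scores were averaged over arrays of the same protein sequence at different concentrations or buffers, and over linkers, and negative values can be taken as non-binding.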

Fuc(a1-2)Gal(b1-3)GalNAc = biological target: Fuc(a1-2)Gal(b1-3)GalNAc
How it was run: as §1

[1] = biological target: Fuc(a1-2)Gal(b1-3)GalNAc(a1-3)[Fuc(a1-2)]Gal(b1-4)Glc
How it was run: as §1

[2] = biological target: Fuc(a1-2)Gal(b1-3)GalNAc(a1-3)[Fuc(a1-2)]Gal(b1-4)GlcNAc
How it was run: as §1

[3] = biological target: Fuc(a1-2)Gal(b1-3)GalNAc(b1-3)Gal
How it was run: as §1

[4] = biological target: Fuc(a1-2)Gal(b1-3)GalNAc(b1-3)Gal(a1-4)Gal(b1-4)Glc
How it was run: as §1

[5] = biological target: Fuc(a1-2)Gal(b1-3)GalNAc(b1-4)[Neu5Ac(a2-3)]Gal(b1-4)Glc
How it was run: as §1

Fuc(a1-2)Gal(b1-3)GlcNAc = biological target: Fuc(a1-2)Gal(b1-3)GlcNAc
How it was run: as §1

[6] = biological target: Fuc(a1-2)Gal(b1-3)GlcNAc(b1-2)Man(a1-3)[Fuc(a1-2)Gal(b1-3)GlcNAc(b1-2)Man(a1-6)]Man(b1-4)GlcNAc(b1-4)GlcNAc
How it was run: as §1

[7] = biological target: Fuc(a1-2)Gal(b1-3)GlcNAc(b1-2)Man(a1-3)[Fuc(a1-2)Gal(b1-3)GlcNAc(b1-2)Man(a1-6)]Man(b1-4)GlcNAc(b1-4)[Fuc(a1-6)]GlcNAc
How it was run: as §1

[8] = biological target: Fuc(a1-2)Gal(b1-3)GlcNAc(b1-3)Gal(b1-4)Glc
How it was run: as §1

[9] = biological target: Fuc(a1-2)Gal(b1-3)GlcNAc(b1-3)GalNAc
How it was run: as §1

[10] = biological target: Fuc(a1-2)Gal(b1-3)GlcNAc(b1-3)[Fuc(a1-2)Gal(b1-3)GlcNAc(b1-6)]GalNAc
How it was run: as §1

[11] = biological target: Fuc(a1-2)Gal(b1-3)GlcNAc(b1-3)[Gal(b1-4)GlcNAc(b1-6)]Gal(b1-4)Glc
How it was run: as §1

[12] = biological target: Fuc(a1-2)Gal(b1-3)GlcNAc(b1-3)[Neu5Ac(a2-6)Gal(b1-4)GlcNAc(b1-6)]Gal(b1-4)Glc
How it was run: as §1

[13] = biological target: Fuc(a1-2)Gal(b1-3)GlcNAc6S
How it was run: as §1

[14] = biological target: Fuc(a1-2)Gal(b1-3)[Fuc(a1-4)]GlcNAc
How it was run: as §1

[15] = biological target: Fuc(a1-2)Gal(b1-3)[Fuc(a1-4)]GlcNAc(b1-2)Man(a1-3)[Fuc(a1-2)Gal(b1-3)[Fuc(a1-4)]GlcNAc(b1-2)Man(a1-3)]Man(b1-4)GlcNAc(b1-4)GlcNAc
How it was run: as §1

[16] = biological target: Fuc(a1-2)Gal(b1-3)[Fuc(a1-4)]GlcNAc(b1-2)Man(a1-3)[Fuc(a1-2)Gal(b1-3)[Fuc(a1-4)]GlcNAc(b1-2)Man(a1-6)]Man(b1-4)GlcNAc(b1-4)[Fuc(a1-6)]GlcNAc(b1-4)[Fuc(a1-6)]GlcNAc
How it was run: as §1

[17] = biological target: Fuc(a1-2)Gal(b1-3)[Fuc(a1-4)]GlcNAc(b1-3)[Fuc(a1-3)[Gal(b1-4)]GlcNAc(b1-6)]Gal(b1-4)Glc
How it was run: as §1

[18] = biological target: Fuc(a1-2)Gal(b1-3)[Fuc(a1-4)]GlcNAc(b1-3)[Gal(b1-4)GlcNAc(b1-6)]Gal(b1-4)Glc
How it was run: as §1

Fuc(a1-2)Gal(b1-4)Glc = biological target: Fuc(a1-2)Gal(b1-4)Glc
How it was run: as §1

Fuc(a1-2)Gal(b1-4)Glc6S = biological target: Fuc(a1-2)Gal(b1-4)Glc6S
How it was run: as §1

Fuc(a1-2)Gal(b1-4)GlcNAc = biological target: Fuc(a1-2)Gal(b1-4)GlcNAc
How it was run: as §1

[19] = biological target: Fuc(a1-2)Gal(b1-4)GlcNAc(b1-2)Man
How it was run: as §1

[20] = biological target: Fuc(a1-2)Gal(b1-4)GlcNAc(b1-2)Man(a1-3)[Fuc(a1-2)Gal(b1-4)GlcNAc(b1-2)Man(a1-6)]Man(b1-4)GlcNAc(b1-4)GlcNAc
How it was run: as §1

[21] = biological target: Fuc(a1-2)Gal(b1-4)GlcNAc(b1-2)Man(a1-3)[Fuc(a1-2)Gal(b1-4)GlcNAc(b1-2)Man(a1-6)]Man(b1-4)GlcNAc(b1-4)[Fuc(a1-6)]GlcNAc
How it was run: as §1

[22] = biological target: Fuc(a1-2)Gal(b1-4)GlcNAc(b1-2)[Fuc(a1-2)Gal(b1-4)GlcNAc(b1-4)]Man(a1-3)[Fuc(a1-2)Gal(b1-4)GlcNAc(b1-2)Man(a1-6)]Man(b1-4)GlcNAc(b1-4)GlcNAc
How it was run: as §1

[23] = biological target: Fuc(a1-2)Gal(b1-4)GlcNAc(b1-3)Gal(b1-4)GlcNAc
How it was run: as §1

[24] = biological target: Fuc(a1-2)Gal(b1-4)GlcNAc(b1-3)Gal(b1-4)GlcNAc(b1-2)Man(a1-3)[Fuc(a1-2)Gal(b1-4)GlcNAc(b1-3)Gal(b1-4)GlcNAc(b1-2)Man(a1-6)]Man(b1-4)GlcNAc(b1-4)GlcNAc
How it was run: as §1

B1: EULS2 M2 (Oryza sativa) (protein)
chain: MVYCRANPNYAMTARNGAVVLAPANPKDEYQHWIKDMRWSTSIKDEEGYPAFALVNKATGQAIKHSLGQSHPVRLVPYNPEVMDESVLWTESRDVGNGFRCIRMVNNIYLNFDAFHGDKYHGGVRDGTDIVLWKLCEGDSQRWKIQPYYILEQKLISEEDLNSAVDHHHHHH
glycan array binding signal (z-score) (Fuc(a1-2)Gal): -0.308
glycan array binding signal (z-score) (Fuc(a1-2)Gal(b1-3)GalNAc): -0.33
glycan array binding signal (z-score) [1]: -0.34
glycan array binding signal (z-score) [2]: -0.26
glycan array binding signal (z-score) [3]: 0.052
glycan array binding signal (z-score) [4]: -0.02
glycan array binding signal (z-score) [5]: -0.129
glycan array binding signal (z-score) (Fuc(a1-2)Gal(b1-3)GlcNAc): 0.346
glycan array binding signal (z-score) [6]: 2.57
glycan array binding signal (z-score) [7]: -0.266
glycan array binding signal (z-score) [8]: -0.208
glycan array binding signal (z-score) [9]: -0.533
glycan array binding signal (z-score) [10]: -0.623
glycan array binding signal (z-score) [11]: 0.456
glycan array binding signal (z-score) [12]: -0.382
glycan array binding signal (z-score) [13]: 0.296
glycan array binding signal (z-score) [14]: 0.051
glycan array binding signal (z-score) [15]: 0.103
glycan array binding signal (z-score) [16]: 0.849
glycan array binding signal (z-score) [17]: -0.182
glycan array binding signal (z-score) [18]: -0.265
glycan array binding signal (z-score) (Fuc(a1-2)Gal(b1-4)Glc): 0.089
glycan array binding signal (z-score) (Fuc(a1-2)Gal(b1-4)Glc6S): -0.25
glycan array binding signal (z-score) (Fuc(a1-2)Gal(b1-4)GlcNAc): -0.384
glycan array binding signal (z-score) [19]: -0.221
glycan array binding signal (z-score) [20]: 0.692
glycan array binding signal (z-score) [21]: -0.072
glycan array binding signal (z-score) [22]: -0.044
glycan array binding signal (z-score) [23]: -0.35
glycan array binding signal (z-score) [24]: -0.268
